Data: PubChem BioAssay AID1671194 (National Center for Advancing Translational Sciences (NCATS), 2021)
Among all 140,000 compounds or so, about 240 (0.17%) were called active. This list was built around the results that the source calls inconclusive (neither active nor inactive); the mix of calls is not that of the screen. Calls come from the whole dose curve; as a rule, active = well fitted inhibition curve with a large enough effect; inconclusive = small, poorly fitted or top-dose-only effect; inactive = no such curve, though single readings can be large or run the other way. Potencies of inconclusive entries are doubtful fits and often do not repeat.

Experiment: Primary qHTS assay for inhibitors of alpha-synuclein gene (SNCA) expression; note: nearly all actives have a fitted effect of over 45% in size
Conditions: HEK-293 SNCA-luciferase knock-in, luminescence, 24 h; series mostly up to 57.2 µM
Potency is the fitted concentration of half-maximal effect; tags give direction and shape of the fitted curve.

Q: With `O=C(NCCc1ccc(Cl)cc1)c1ccc2nnc(CC3CC3)n2c1` as the molecule, how does the Potency read?
A: inactive

Q: For `CC(C)C[C@@H]1N[C@H](C(=O)NCc2ccccc2Cl)Cc2c[nH]c3cccc1c23`, which Potency is on record?
A: inconclusive: 56.2 µM [inhibitor, single point]

Q: Which Potency does the source give for `CC(C)(C)c1nc(C(=O)N2CCCC2)n2ccncc12` here?
A: inactive

Q: Which Potency does the source give for `COCC(=O)N(C1CCOCC1)C1CCN(C(=O)c2ccc(C)c(C)c2)CC1` here?
A: inconclusive: 7.08 µM [inhibitor, single point]

Q: With `CC(C)(C)CC(=O)N1CCN2C(=O)c3cc(-c4ccc5c(c4)OCO5)ccc3NC(=O)[C@H]2C1` as the molecule, how does the Potency read?
A: inconclusive: 11.2 µM [inhibitor, partial curve, poor fit]

Q: With `CC(C)c1ccc(NC(=O)Cn2cc(S(=O)(=O)Cc3ccccc3Cl)c3ccccc32)cc1` as the molecule, how does the Potency read?
A: inconclusive: 0.631 µM [inhibitor, partial curve, poor fit]

Q: Which Potency does the source give for `O=C(Nc1ccc2oc(-c3cccc(F)c3)nc2c1)c1ccc2ccccc2c1` here?
A: inactive

Q: Which Potency does the source give for `O=C(c1ccc(Cl)cc1)N1CCN(c2cc(-c3ccc(Cl)cc3)[nH]n2)CC1` here?
A: inconclusive: 25.1 µM [inhibitor, single point]

Q: Which Potency does the source give for `CC1CCN(C(=O)CSc2nc3ccccc3nc2Cc2ccccc2)CC1` here?
A: inconclusive: 39.8 µM [inhibitor, single point]

Q: For `CC(C)NC(=O)N1Cc2ccccc2OC2(CCN(C(=O)c3cccc4[nH]ccc34)CC2)C1`, which Potency is on record?
A: inconclusive: 39.8 µM [inhibitor, single point]

Q: With `CC(C)NC(=O)C[C@@H]1C[C@H]2O[C@H](CNC3CCCCC3)[C@@H](O)[C@H]2O1` as the molecule, how does the Potency read?
A: inactive

Q: Which Potency does the source give for `CN1C(=O)C(CC(=O)NC2CCCCC2)Sc2ncccc21` (stereo unspecified) here?
A: inconclusive: 1.58 µM [inhibitor, full curve, poor fit]

Q: Which Potency does the source give for `CCCCNC(=O)CC(c1cccc([N+](=O)[O-])c1)c1c[nH]c2ccccc12` (stereo unspecified) here?
A: inconclusive: 39.8 µM [inhibitor, single point]

Q: With `Cc1ccc2oc(C(=O)Nc3sc4c(c3C(=O)NCc3ccco3)CCC4)cc(=O)c2c1` as the molecule, how does the Potency read?
A: inactive

Q: With `COc1ccc(CN2CC[C@@H]3CN(S(C)(=O)=O)[C@@H]3C2)cc1OC` as the molecule, how does the Potency read?
A: inconclusive: 39.8 µM [inhibitor, single point]

Q: With `CCOc1ccc(CNC(=O)CSc2c3c(nc4ccc(Cl)cc24)CCCC3)cc1` as the molecule, how does the Potency read?
A: inconclusive: 3.55 µM [inhibitor, single point]

Q: For `CC(=O)N1CCCN(c2ncnc3c2CN(C2CCCNC2)C(=O)CN3C)CC1` (stereo unspecified), which Potency is on record?
A: inactive

Q: Which Potency does the source give for `O=c1ccc(N2CCC(NS(=O)(=O)c3ccccc3Cl)CC2)nn1CC1CC1` here?
A: inconclusive: 25.1 µM [inhibitor, partial curve, poor fit]

Q: For `Cc1ccc(NC(=O)Cn2c(N3CCCCC3)nc(C)c(C)c2=O)cc1C`, which Potency is on record?
A: inactive

Q: Which Potency does the source give for `O=C(O)c1cnc(N2CCCCC2)nc1-c1ccncc1` here?
A: inconclusive: 0.708 µM [inhibitor, single point]

Q: For `CC1CCC2(CC1)OCC(C(=O)NCc1ccco1)N2C(=O)c1ccccc1F` (stereo unspecified), which Potency is on record?
A: inconclusive: 39.8 µM [inhibitor, single point]

Q: Which Potency does the source give for `O=C(Cc1ccccn1)N1CCc2nc(C3CC3)nc(-c3ccc(Cl)cc3)c2C1` here?
A: inactive

Q: With `CCCNC(=O)c1coc(COc2ccc3c(c2)C(c2cccc(C)c2)N(C(=O)C2CC2)CC3)n1` (stereo unspecified) as the molecule, how does the Potency read?
A: inconclusive: 22.4 µM [inhibitor, partial curve, poor fit]

Q: With `CCc1cccc2c(C(CC(=O)NCc3ccco3)c3ccc(C)cc3)c[nH]c12` (stereo unspecified) as the molecule, how does the Potency read?
A: inactive

Q: With `c1ccc(-c2cnc(Nc3ccncc3)c3c2CCO3)cc1` as the molecule, how does the Potency read?
A: inactive

Q: For `CSc1nn(CC(=O)Nc2cc(C)ccc2C)c(N)c1S(=O)(=O)c1ccccc1`, which Potency is on record?
A: inconclusive: 25.1 µM [inhibitor, single point]

Q: With `CN(C)C(=O)c1ccc2cc[nH]c2n1` as the molecule, how does the Potency read?
A: inconclusive: 1.41 µM [inhibitor, full curve, poor fit]

Q: For `Cc1ncsc1CN1CCCC(c2[nH]ccc2C(N)=O)C1` (stereo unspecified), which Potency is on record?
A: inconclusive: 35.5 µM [inhibitor, partial curve, poor fit]

Q: Which Potency does the source give for `Cc1ccc2nc(C3CCN(CC(C)C)CC3)[nH]c(=O)c2c1` here?
A: inactive

Q: With `COc1ccc(CCNC(=O)Cn2ccn3nc4c(c3c2=O)CCCCC4)cc1OC` as the molecule, how does the Potency read?
A: inconclusive: 17.8 µM [inhibitor, partial curve, poor fit]

Q: With `CNCC(=O)N1CCC2(CC1)CN(Cc1ccccc1)CC2CO` (stereo unspecified) as the molecule, how does the Potency read?
A: inactive

Q: For `COc1ccc(-n2ccn(CC(=O)Nc3ccc(C)cc3C)c(=O)c2=O)cc1`, which Potency is on record?
A: inconclusive: 8.91 µM [inhibitor, full curve, poor fit]

Q: With `CCCCCNC(=O)CC(c1cccc(OC)c1OC)c1c[nH]c2ccccc12` (stereo unspecified) as the molecule, how does the Potency read?
A: inactive

Q: For `Cc1nc(C2CCCN(C(=O)C(C)(C)N)C2)cc(N2CCOCC2)n1` (stereo unspecified), which Potency is on record?
A: inconclusive: 4.47 µM [inhibitor, single point]

Q: With `O=C(Cn1ccn2nc(-c3ccccc3)c(CO)c2c1=O)Nc1ccc2c(c1)CCC2` as the molecule, how does the Potency read?
A: inconclusive: 17.8 µM [inhibitor, single point]

Q: With `Cc1ccc(CSc2nc3ccncc3n2Cc2nc(-c3ccccc3C)oc2C)cc1` as the molecule, how does the Potency read?
A: active: 10 µM

Q: Which Potency does the source give for `CN(C)C(=O)N1C2CCC1CN(c1ccc(C(F)(F)F)cc1)C2` here?
A: inconclusive: 28.2 µM [inhibitor, partial curve, poor fit]

Q: With `CN(C(=O)c1ccc2nc(-c3ccc(F)cc3)cn2c1)C1CCOCC1` as the molecule, how does the Potency read?
A: inactive

Q: With `COC(=O)[C@]1(CC(C)C)N[C@H](c2cc(C(C)C)no2)[C@@H]2C(=O)N(C)C(=O)[C@@H]21` as the molecule, how does the Potency read?
A: inconclusive: 11.2 µM [inhibitor, partial curve, poor fit]

Q: Which Potency does the source give for `O=C1C(c2ccccc2)CC2(CCN(Cc3cccc(O)c3)CC2)CN1C1CC1` (stereo unspecified) here?
A: inactive

Q: For `Cc1ccc(-c2cc3c(=O)n(CC(O)c4ccc(C)c(C)c4)ccn3n2)c(C)c1` (stereo unspecified), which Potency is on record?
A: inactive

Q: For `Cc1ccc(S(=O)(=O)N(CC(=O)NCCSc2ccc(Cl)cc2)c2cccc(Cl)c2)cc1`, which Potency is on record?
A: inconclusive: 12.6 µM [inhibitor, partial curve, poor fit]

Q: Which Potency does the source give for `CCN1CCN(C(c2ccc(F)cc2)c2sc3nc(-c4ccco4)nn3c2O)CC1` (stereo unspecified) here?
A: inactive

Q: With `Cc1noc(C)c1CCC(=O)N[C@@H]1CN(c2ccncn2)C[C@H]1CN(C)C` as the molecule, how does the Potency read?
A: inconclusive: 14.1 µM [inhibitor, single point]

Q: With `COc1ccc(N2CCN(C(c3ccc(F)cc3)c3sc4nc(-c5ccco5)nn4c3O)CC2)cc1` (stereo unspecified) as the molecule, how does the Potency read?
A: inconclusive: 8.91 µM [inhibitor, partial curve]

Q: For `CCOCCNC(=O)c1c(C)noc1-c1ccc(OC)cc1`, which Potency is on record?
A: inactive

Q: With `O=C(Nc1ccc(Cl)cc1)N1Cc2[nH]cnc2C[C@H]1c1nc(-c2ccc(OC(F)(F)F)cc2)no1` as the molecule, how does the Potency read?
A: inconclusive: 22.4 µM [inhibitor, single point]

Q: Which Potency does the source give for `Cc1nc(C(=O)N2CCC3(CCC(=O)N(CCc4cnc[nH]4)C3)CC2)cs1` here?
A: inconclusive: 20 µM [inhibitor, single point]

Q: With `Cc1ccc(C)c(NC(=O)CN2C(=O)NC(c3ccc(Cl)cc3)C3=C2COC3=O)c1` (stereo unspecified) as the molecule, how does the Potency read?
A: inconclusive: 12.6 µM [inhibitor, partial curve, poor fit]

Q: Which Potency does the source give for `O=C(c1[nH]nc2c1CCc1ccccc1-2)N1CCC(c2noc(-c3ccccn3)n2)C1` (stereo unspecified) here?
A: inactive

Q: With `C#CCNC(=O)C1CN(c2ccc(OC)cc2)C(=O)N1` (stereo unspecified) as the molecule, how does the Potency read?
A: inconclusive: 11.2 µM [inhibitor, single point]

Q: For `Cn1nccc1C(=O)N1CCc2c(n(CCOc3ccccc3)n(-c3ccccc3)c2=O)C1`, which Potency is on record?
A: inconclusive: 7.08 µM [inhibitor, full curve, poor fit]

Q: With `Cc1cccc(-c2cccc(CN3CCC(NC(=O)Nc4ccccc4)CC3)c2)c1` as the molecule, how does the Potency read?
A: inconclusive: 39.8 µM [inhibitor, single point]

Q: Which Potency does the source give for `CN(C)C(=O)CN1C(=O)CO[C@H](c2ccc(NC(=O)c3ccc(C(F)(F)F)cc3)cc2)[C@H]1CO` here?
A: inconclusive: 10 µM [inhibitor, partial curve, poor fit]

Q: Which Potency does the source give for `Cc1cccc(CNC(=O)c2c(C)noc2-c2cccs2)c1` here?
A: inactive

Q: Which Potency does the source give for `CC(C)CCN1CCc2c(sc3ncnc(N4CCN(C)CC4)c23)C1` here?
A: inactive

Q: Which Potency does the source give for `Cc1nc(N2CCC(C(=O)NCc3cccc(Cl)c3)CC2)cc(C(F)(F)F)n1` here?
A: inconclusive: 2.82 µM [inhibitor, single point]

Q: Which Potency does the source give for `COc1ccccc1C1C=C(c2ccc(F)cc2)Nc2nc(-c3ccc(Cl)cc3)nn21` (stereo unspecified) here?
A: inconclusive: 39.8 µM [inhibitor, single point]

Q: For `CCCCN1C(=O)c2[nH]nc(-c3ccccc3O)c2C1c1cccc(OCc2ccccc2)c1` (stereo unspecified), which Potency is on record?
A: inconclusive: 22.4 µM [inhibitor, single point]

Q: With `O=C(c1ccc(CCC2COc3ccccc3O2)cc1)N1CCCCC1` (stereo unspecified) as the molecule, how does the Potency read?
A: inactive

Q: With `Cn1cc(CN2CCOC[C@H]2c2ncc(-c3ccc(S(C)(=O)=O)cc3)[nH]2)c2ccccc21` as the molecule, how does the Potency read?
A: inconclusive: 39.8 µM [inhibitor, single point]

Q: With `Cc1nc(-c2ccc(Cl)cc2)sc1CCNC(=O)C(=O)Nc1ccc(F)cc1F` as the molecule, how does the Potency read?
A: inactive

Q: With `Cc1ccccc1NC(=O)c1ccc(F)c(S(=O)(=O)N(C)Cc2ccccc2)c1` as the molecule, how does the Potency read?
A: inconclusive: 20 µM [inhibitor, single point]

Q: With `Cc1noc(-c2ccn3c(CNC(=O)c4ccc(N(C)C)cc4)nnc3c2)n1` as the molecule, how does the Potency read?
A: inconclusive: 39.8 µM [inhibitor, single point]

Q: Which Potency does the source give for `CCc1nc2c(c(-c3ccc(Cl)cc3)n1)CN(Cc1cccc(F)c1)CC2` here?
A: inconclusive: 28.2 µM [inhibitor, single point]

Q: For `Clc1cccc(N2CCN(c3ncnc4c3nc3n4CCCCC3)CC2)c1`, which Potency is on record?
A: inconclusive: 17.8 µM [inhibitor, partial curve, poor fit]
